# Reference: PubChem BioAssay AID504332 (National Center for Advancing Translational Sciences (NCATS), 2011)
# Out of some 350,000 compounds screened, about 31,000 (8.9%) were called active. This list was built around the results that the source calls inconclusive (neither active nor inactive); the mix of calls is not that of the screen. Calls follow the shape of the dose curve; as a rule, active = well fitted inhibition curve with a large enough effect; inconclusive = small, poorly fitted or top-dose-only effect; inactive = no such curve, though single readings can be large or run the other way. A potency beside an inconclusive call is a rough fit, not a confirmed value.
# Target: Histone-lysine N-methyltransferase EHMT2 (Homo sapiens) (UniProt Q96KQ7)
# UniProt Q96KQ7, sequence (Q96KQ7 whole entry, looked up): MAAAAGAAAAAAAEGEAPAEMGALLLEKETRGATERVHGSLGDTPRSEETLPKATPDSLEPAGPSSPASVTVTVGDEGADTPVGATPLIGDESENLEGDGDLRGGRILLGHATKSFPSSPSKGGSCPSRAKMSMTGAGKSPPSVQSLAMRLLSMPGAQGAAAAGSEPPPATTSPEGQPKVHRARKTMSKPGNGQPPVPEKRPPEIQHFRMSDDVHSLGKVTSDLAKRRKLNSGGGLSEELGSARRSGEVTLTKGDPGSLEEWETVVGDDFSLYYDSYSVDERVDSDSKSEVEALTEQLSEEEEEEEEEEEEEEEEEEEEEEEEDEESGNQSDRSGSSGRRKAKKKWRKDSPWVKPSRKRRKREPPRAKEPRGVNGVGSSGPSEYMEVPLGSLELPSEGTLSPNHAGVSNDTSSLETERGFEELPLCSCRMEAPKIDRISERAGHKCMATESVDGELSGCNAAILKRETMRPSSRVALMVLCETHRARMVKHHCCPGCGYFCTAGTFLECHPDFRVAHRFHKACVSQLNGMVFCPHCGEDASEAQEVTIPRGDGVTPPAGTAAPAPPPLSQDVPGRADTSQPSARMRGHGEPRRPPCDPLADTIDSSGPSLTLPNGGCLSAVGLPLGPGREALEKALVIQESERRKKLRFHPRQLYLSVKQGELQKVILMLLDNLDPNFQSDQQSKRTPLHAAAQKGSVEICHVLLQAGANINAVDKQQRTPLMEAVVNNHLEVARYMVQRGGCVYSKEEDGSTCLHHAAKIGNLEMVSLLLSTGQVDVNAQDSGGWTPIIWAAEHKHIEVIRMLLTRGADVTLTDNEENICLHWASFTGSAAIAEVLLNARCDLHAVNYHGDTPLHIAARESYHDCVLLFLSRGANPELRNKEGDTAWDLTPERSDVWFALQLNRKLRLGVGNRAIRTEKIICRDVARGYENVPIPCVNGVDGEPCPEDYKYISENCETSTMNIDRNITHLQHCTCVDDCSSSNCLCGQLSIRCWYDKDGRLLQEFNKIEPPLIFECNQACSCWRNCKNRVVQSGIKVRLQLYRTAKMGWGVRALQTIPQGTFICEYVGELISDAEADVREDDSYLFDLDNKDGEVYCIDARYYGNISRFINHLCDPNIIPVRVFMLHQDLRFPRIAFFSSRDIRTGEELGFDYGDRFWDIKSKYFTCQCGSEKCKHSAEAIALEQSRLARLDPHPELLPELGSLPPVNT
# Assay: qHTS Assay for Inhibitors of Histone Lysine Methyltransferase G9a; also: nearly all actives have a fitted effect of over 75% in size
# Conditions: G9a H3K9 monomethylation, AlphaScreen, 2 h; activity, negative = inhibition: at 59 µM (top of the series) unless noted
# In short: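 Quantitative HTS format: methyltransferase activity on a biotin-tagged H3K9 peptide is measured by AlphaScreen, using a rabbit anti-monomethyl-H3K9 antibody with streptavidin donor and anti-IgG acceptor beads. Final levels are 20 nM enzyme, 500 nM peptide, 20 uM SAM; 2 h RT.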
# % is scaled to controls: 0 for no effect and ±100 for the full control effect; potency is read from the fitted curve at half-maximal effect; tags tell the direction and shape of the fitted curve.
SMILES,Potency,"activity, negative = inhibition"
CCC(C)NC(=O)CCSc1nc(-c2ccc3c(c2)OCO3)cc(C(F)(F)F)n1 (centres undefined),"inconclusive: 39.8 µM [inhibitor, single point]",
CCCn1c(SCC(=O)N2CCCCC2)nc2c1c(=O)n(C)c(=O)n2C,"inconclusive: 5.01 µM [inhibitor, full curve]",
O=C(Nc1cccc(C(=O)OCc2cc(=O)n3c4c(sc3n2)CCCC4)c1)c1cccc(F)c1,,inactive: 1.47% [at 12.7 µM]
CC(=O)O/C(=C\c1cn(C(C)=O)c2ccccc12)C(=O)O,active: 35.5 µM,
COc1ccc(C(=O)COc2cccc(NC(=O)c3ccco3)c2)cc1,"inconclusive: 20 µM [inhibitor, single point]",
Nc1c(C(=O)NCC2CCCO2)sc(=S)n1-c1ccccc1 (centres undefined),"inconclusive: 5.01 µM [inhibitor, full curve, poor fit]",
Cc1ccc(Cl)cc1N1CCN(C(=O)Cn2nc(C)c3sc4ccccc4c3c2=O)CC1,"inconclusive: 28.2 µM [inhibitor, single point]",
O=C(Nc1cccc(Cl)c1)N(Cc1nc2ccccc2c(=O)[nH]1)Cc1cccs1,inactive,
CC(O)[C@@H](C(=O)N1CCNCC1)n1cc(CCCCN)nn1 (some centres undefined),,inconclusive: -88.6% [inhibitor]
O=C(NC(=S)Nc1ccccc1C(=O)O)c1ccc2ccccc2c1,active: 28.2 µM,
CCn1nc(C(=O)NNC(=O)COc2ccc(OC)cc2)c2ccccc2c1=O,"inconclusive: 39.8 µM [inhibitor, single point]",
COc1ccc(/C=C2\S/C(=N/S(=O)(=O)c3cccs3)NC2=O)cc1,"inconclusive: 50.1 µM [inhibitor, partial curve, poor fit]",
C#CCOCCOCCOCCNc1nc(N2CCN(C(=O)CCCCCCCCCCNC(=O)[C@H](CCCCN)n3cc(C)nn3)CC2)nc(N2CCN(C(=O)CCCCCCCCCCNC(=O)[C@H](CCCN=C(N)N)n3cc(C[C@@H](C)CC)nn3)CC2)n1,,inactive: -6.91% [at 2.33 µM]
COc1ccc(CN2CCC(Cc3ccccc3)CC2)c(C)c1C,"inconclusive: 25.1 µM [inhibitor, single point]",
COc1cc(C(=O)NCc2ccc3c(c2)CCN3C(=O)c2ccc(Cl)cc2)cc(OC)c1OC,inactive,
Cc1cccc(OS(=O)(=O)NC(=O)OCC2CCCN3CCCCC23)c1 (centres undefined),inactive,
O=C(/C=C/c1ccc(Br)o1)NC(c1ccccc1)c1ccccc1,active: 17.8 µM,
Cc1ccc(NC(=O)CSc2nc3ccc(NC(=O)c4ccco4)cc3s2)cc1,"inconclusive: 12.6 µM [inhibitor, partial curve, poor fit]",
Cc1cccc2sc(NC(=O)Cn3cccc3)nc12,active: 44.7 µM,
FC(F)(F)c1ccccc1-c1cc(NCCN2CCOCC2)ncn1,,inactive: 39.1% [at 0.501 µM]
COc1ccc(NC(=O)c2ccc(-c3ccccc3Cl)o2)cc1,active: 79.4 µM,
Cc1ccc(O)c(C(=O)c2cnc3c(c2)COc2ccc(C)cc2-3)c1,"inconclusive: 20 µM [inhibitor, single point]",
O=C1CC(c2ccco2)CC2=C1C=Nc1ccccc1N2 (centres undefined),"inconclusive: 1.26 µM [inhibitor, partial curve, poor fit]",

SMILES,Potency,"activity, negative = inhibition"
CCc1nc2cccnc2n1-c1ccc(CC(=O)O)cc1,"inconclusive: 44.7 µM [inhibitor, partial curve, poor fit]",
COC(CNC(=O)C1CCN(C(=O)c2cc3oc(C)cc3n2Cc2c(F)cccc2Cl)CC1)OC,active: 31.6 µM,
COc1cccc(Cn2c(C)c(CNCc3cccc(C)c3)c(C(=O)O)c2C)c1,"inconclusive: 5.62 µM [inhibitor, partial curve, poor fit]",
CCCCCOc1ccc(C(=O)C(c2ccccc2)N2CCOCC2)cc1 (centres undefined),"inconclusive: 22.4 µM [inhibitor, single point]",
C=CCOC(=O)Nc1c(C(=O)OC)[nH]c2ccc(Cl)cc12,"inconclusive: 50.1 µM [inhibitor, partial curve, poor fit]",
CC(=O)c1ccc(NC(=O)c2ccc(-c3nc(CSc4ccc(C)cc4)c(C)o3)cc2)cc1,"inconclusive: 3.16 µM [inhibitor, partial curve, poor fit]",
CCCCc1ccc(NC(=O)CSc2nc(=O)n(CCCN3CCOCC3)c3c2CCC3)cc1,inactive,
O=C(Nc1ccc(Br)cc1)c1ccc2ncsc2c1,active: 44.7 µM,
O=C(c1ccc(Cl)cc1)C1CCCN(Cc2ccc(Oc3ncccn3)cc2)C1 (centres undefined),"inconclusive: 35.5 µM [inhibitor, single point]",
Cc1noc(C)c1CN1C(=O)NC(Cc2ccccc2)(Cc2ccccc2)C1=O,"inconclusive: 1.58 µM [inhibitor, partial curve, poor fit]",
COc1ccc(NS(=O)(=O)c2cccc3nsnc23)cc1OC,"inconclusive: 79.4 µM [inhibitor, single point]",
CC(C)c1cccc(C(C)C)c1OCCCCN1CCCC1,"inconclusive: 89.1 µM [inhibitor, single point]",
CCC1(c2ccc(Cl)cc2)NC(=S)N(c2ccccc2)N1 (centres undefined),active: 12.6 µM,
Cc1cccc(-c2nc3c4ccccc4nc(N4CCN(c5cccc(Cl)c5)CC4)n3n2)c1,inactive,
O=C(O)CN1CCN(CC(=O)O)CCN(CC(=O)O)CCN(CC(=O)O)CC1,"inconclusive: 2.24 µM [inhibitor, partial curve, poor fit]",
O=C(CSc1nc2ccccc2nc1Cc1ccccc1)N1CCc2ccccc21,inactive,
NC(=O)Nn1c(CCC(=O)O)ccc1-c1ccc(Br)cc1,,inconclusive: -86.6% [inhibitor]
O=C(NC1CCCN(Cc2ccccc2F)C1)c1cccs1 (centres undefined),,inactive: 43.1% [at 0.501 µM]
CCCCN(C)C(=O)CSc1c2c(nc3ccc(Cl)cc13)CCCC2,inactive,
Cc1cc(NC(=O)Cn2nc3c(cc2=O)CCCC3)ccc1Br,"inconclusive: 89.1 µM [inhibitor, partial curve, poor fit]",
Cc1ccc(S(=O)(=O)N(CCO)Cc2cc3ccc(C)c(C)c3[nH]c2=O)cc1,"inconclusive: 8.91 µM [inhibitor, partial curve, poor fit]",
CC1Cn2c(nnc2-c2ccccc2O)S1 (centres undefined),active: 8.91 µM,
CN(C)/N=C/c1ccc(Sc2ccccc2[N+](=O)[O-])o1,active: 25.1 µM,

SMILES,Potency,"activity, negative = inhibition"
COc1ccc(CCNC(=O)c2ccc(Cn3c(=O)c4cccn4c4cccnc43)cc2)cc1OC,"inconclusive: 17.8 µM [inhibitor, single point]",
O=C(COC(=O)c1ccccn1)Nc1ccc(S(=O)(=O)N2CCOCC2)cc1,inactive,
C/C(Cl)=C\CSc1nnc2n(N)c(=O)c3ccccc3n12,,inactive: -24.4% [at 0.0925 µM]
C[C@@H]1NC(=O)c2cc([N+](=O)[O-])cc(I)c2NCC[C@@H](C(N)=O)NC(=O)[C@H](CC(N)=O)NC1=O,active: 22.4 µM,
NCCNc1ccc(C(=O)N2c3ccccc3Sc3ccccc32)cc1[N+](=O)[O-],"inconclusive: 39.8 µM [inhibitor, single point]",
CCOC(=O)c1cnc2c(OC)cccc2c1N1CCN(c2ccccn2)CC1,"inconclusive: 39.8 µM [inhibitor, partial curve, poor fit]",
O=C(N/C(=C/c1ccco1)C(=O)N1CCCCCC1)c1ccccc1,active: 44.7 µM,
CCOc1cc(/C=C2/SC(=S)N(CC(=O)O)C2=O)ccc1OC(=O)c1cccs1,"inconclusive: 28.2 µM [inhibitor, single point]",
CSc1nnc(Cn2c(=O)sc3ccccc32)n1-c1ccccc1,"inconclusive: 89.1 µM [inhibitor, single point]",
COc1ccc(C(=O)/C=C/Nc2ccc(S(=O)(=O)Nc3nc(C)cc(C)n3)cc2)cc1OC,"inconclusive: 3.98 µM [inhibitor, partial curve]",
COc1ccc(/C=C/C(=O)C23CC4CC(CC(C4)C2)C3)cc1CN1CCOCC1,"inconclusive: 50.1 µM [inhibitor, partial curve]",
O=C(Nc1ccc2c(c1)CCC2)Nc1ccc2c(c1)OCO2,"inconclusive: 39.8 µM [inhibitor, single point]",
N#Cc1ccc(COn2nnc3ccccc32)cc1,active: 89.1 µM,
Fc1cccc(CN2CCSCC2)c1,active: 25.1 µM,
COC(=O)CCCCC(=O)C1C(=O)CC(C)(C)C(C(=O)OC)C1=O (centres undefined),"inconclusive: 20 µM [inhibitor, partial curve, poor fit]",
COc1ccc(NC(C)=O)cc1NC(C)C(=O)Nc1ccc(F)cc1 (centres undefined),,inactive: -17% [at 12.7 µM]
COc1cc(OC)c(OC)cc1/C=C1\Oc2cc(OS(C)(=O)=O)ccc2C1=O,active: 39.8 µM,
Cc1cccc(C)c1NC(=O)CCCSc1nnc(-c2ccco2)n1-c1ccccc1,"inconclusive: 31.6 µM [inhibitor, single point]",
NC(=O)Cn1ccc(O)c(Cc2ccc(Cl)cc2Cl)c1=O,,inactive: 9.21% [at 2.33 µM]
CCOc1ccc(CNn2nnnc2N)cc1,"inconclusive: 28.2 µM [inhibitor, single point]",
CC(C)NC(=O)CSc1nnc(-c2ccc(C(C)(C)C)cc2)n1C,"inconclusive: 39.8 µM [inhibitor, single point]",
COc1ccc(NC(=S)NCCCN2CCCC2=O)c(OC)c1,"inconclusive: 39.8 µM [inhibitor, single point]",
CCOCCCn1c(=N)c(C(=O)NC2CCCCC2)cc2c(=O)n3ccccc3nc21,inactive,
